From PubChem BioAssay AID485360 (National Center for Advancing Translational Sciences (NCATS), 2010)
About 1,500 (0.65%) of roughly 230,000 compounds were called active. Inconclusive results, whose numbers are uncertain, are shown with a selection of clear calls. Calls follow the shape of the dose curve; as a rule, active = well fitted inhibition curve with a large enough effect; inconclusive = small, poorly fitted or top-dose-only effect; inactive = no such curve, though single readings can be large or run the other way. Where the call is inconclusive, the potency comes from a doubtful curve fit.

target: Lethal(3)malignant brain tumor-like protein 1 (Homo sapiens) (UniProt Q9Y468); assay: qHTS Assay for the Inhibitors of L3MBTL1; settings: AlphaScreen L3MBTL1–H3K9me1 peptide binding; activity, negative = inhibition: at 57.1 µM (top of the series); also: nearly all actives have a fitted effect of over 60% in size
Chain of UniProt Q9Y468 (Q9Y468 whole entry, looked up): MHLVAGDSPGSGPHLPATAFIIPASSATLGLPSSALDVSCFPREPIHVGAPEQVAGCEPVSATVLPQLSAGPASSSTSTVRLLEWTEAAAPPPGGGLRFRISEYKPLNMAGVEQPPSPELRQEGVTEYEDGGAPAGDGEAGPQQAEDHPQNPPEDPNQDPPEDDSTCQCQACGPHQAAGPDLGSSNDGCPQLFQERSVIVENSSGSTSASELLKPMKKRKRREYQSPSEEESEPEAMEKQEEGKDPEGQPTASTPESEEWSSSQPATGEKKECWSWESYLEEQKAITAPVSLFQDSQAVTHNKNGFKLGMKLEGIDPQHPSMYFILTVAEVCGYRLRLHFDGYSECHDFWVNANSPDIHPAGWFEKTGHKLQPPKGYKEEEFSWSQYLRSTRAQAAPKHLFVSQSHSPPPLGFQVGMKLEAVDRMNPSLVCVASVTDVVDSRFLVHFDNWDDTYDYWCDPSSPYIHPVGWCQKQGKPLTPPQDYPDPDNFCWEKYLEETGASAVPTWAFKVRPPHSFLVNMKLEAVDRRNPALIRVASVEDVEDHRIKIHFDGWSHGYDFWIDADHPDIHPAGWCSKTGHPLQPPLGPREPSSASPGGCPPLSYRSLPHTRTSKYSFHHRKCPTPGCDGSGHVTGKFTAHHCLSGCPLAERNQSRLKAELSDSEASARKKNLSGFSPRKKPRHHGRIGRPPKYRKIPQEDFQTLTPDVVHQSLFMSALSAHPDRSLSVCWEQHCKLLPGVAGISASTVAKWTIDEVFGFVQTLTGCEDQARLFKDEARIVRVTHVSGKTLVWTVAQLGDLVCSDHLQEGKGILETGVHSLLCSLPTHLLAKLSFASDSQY
In short: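 AlphaScreen proximity signal between nickel-chelate acceptor and streptavidin donor beads (final 10 ug/mL) reports binding of 50 nM L3MBTL1 to 75 nM biotin-H3 K9me1 peptide; complex incubated with compounds 30 min at room temperature; cefsulodin titration as control.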
% is scaled to controls: 0 for no effect and ±100 for the full control effect; potency is read from the fitted curve at half-maximal effect; tags tell the direction and shape of the fitted curve.

SMILES	Potency	activity, negative = inhibition
COc1ccccc1CP(=O)(c1ccccc1)c1ccccc1	inconclusive: 0.708 µM [inhibitor, single point]	
O=C(N/N=C/c1cccs1)c1cc(-c2cccc3ccccc23)n[nH]1	inconclusive: 0.708 µM [inhibitor, single point]	
CC1=NN(c2ccccc2)C(=O)/C1=C/C=C/c1ccc(N(C)C)cc1	inconclusive: 0.708 µM [inhibitor, full curve, poor fit]	
C#CCOCCOCCOCCNc1nc(N2CCN(C(=O)C([C@@H](C)O)n3cc([C@@H](N)CCCCN)nn3)CC2)nc(N2CCN(C(=O)[C@H](CCC(=O)O)n3cc([C@@H](N)[C@H](C)CC)nn3)CC2)n1 (stereo partly drawn)	inconclusive: 31.6 µM [inhibitor, single point]	
CCOC(=O)N1CCC(NC(=O)Cn2cccc2C(=O)c2ccccc2)CC1	inconclusive: 0.794 µM [inhibitor, single point]	
CSc1ccc(/C=C/C(=O)c2c(O)cc(C)oc2=O)cc1		inactive: -27.8%
COc1cc(CNc2cccc(C(=O)O)c2)cc(Br)c1OCC(=O)NC(C)(C)C	inconclusive: 7.08 µM [inhibitor, partial curve, poor fit]	
COc1ccc(/C=N/Nc2nc(C(=O)O)cs2)cc1		inconclusive: -60.9% [inhibitor]
COc1ccc(CC(=O)Nc2ccc3nc(C)sc3c2)cc1OC		inactive: 6.44%
CCn1ncc(CNC(=O)CCCSc2nc(-c3ccco3)cc(C(F)(F)F)n2)c1C		inactive: -7.95%
CCn1c(SCC(=O)OC)nc2sc3c(c2c1=O)CCC3	inconclusive: 31.6 µM [inhibitor, single point]	
CCOc1ccccc1Nc1nc(N)nc(CN(C)C2CCCCC2)n1	inconclusive: 35.5 µM [inhibitor, single point]	
Cc1ccccc1N=Nc1ccc(O)c2ncccc12	active: 25.1 µM	
O=C(Nc1ccccc1N1CCCCC1)c1ccc([N+](=O)[O-])o1		inactive: -23.4%
OCC1(Cc2ccccc2)CCN(Cc2cnc(-c3cccc4ccccc34)nc2)CC1	inconclusive: 10 µM [inhibitor, partial curve, poor fit]	
O=C(COc1cccc2cccnc12)Nc1cccc(S(=O)(=O)N2CCCC2)c1	inconclusive: 31.6 µM [inhibitor, single point]	
Clc1ccc(/C=N/NC(=Nc2ccccc2)c2ccccn2)c(Cl)c1	inconclusive: 15.8 µM [inhibitor, single point]	
CC(=O)Nc1ccc(Nc2ccc(S(=O)(=O)C(F)(F)F)cc2[N+](=O)[O-])cc1	inconclusive: 25.1 µM [inhibitor, partial curve]	
